# Data: article PMC12781765, “Atypical GNAO1 variants in severe childhood speech disorders: clinical, genetic, and molecular insights” (Molecular Autism, 2025)
# T1: GFP-RGS19 (UniProt P49795 1-217)
# T1 construct: RGS19, regulator of G protein signaling 19; Plasmid published earlier; also called GFP-tagged RGS19 construct; source: HEK293T, transfected, in lysate
# T1 sequence (looked up): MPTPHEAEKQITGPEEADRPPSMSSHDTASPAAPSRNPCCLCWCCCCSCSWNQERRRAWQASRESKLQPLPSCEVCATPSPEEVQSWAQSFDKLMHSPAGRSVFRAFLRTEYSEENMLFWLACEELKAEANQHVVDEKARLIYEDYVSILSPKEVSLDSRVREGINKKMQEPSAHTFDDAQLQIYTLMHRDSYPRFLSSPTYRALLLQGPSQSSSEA
# Molecular target: T1, GFP-RGS19
# Test: co-IP; HEK293T co-transfected with the GFP-tagged construct and non-tagged Gαo variants; IP of the GFP fusion with a recombinant GST-tagged nanobody against GFP; Western blot with antibodies against Gαo and GFP; blots quantified with ImageJ
# Details: partners not purified
row,Binder,percent of the binding of wild-type
1,"Gαo T327K (non-tagged) (natural protein, Gαo (GNAO1) with the patient variant p.Thr327Lys (c.980C>A), introduced by site-directed mutagenesis into the non-tagged Gαo plasmid; De novo patient variant; also called p.Thr327Lys; source: HEK293T, transfected (in lysate for co-IP; in cells for BRET)) not shown",~60%
2,"Gαo T327R (non-tagged) (natural protein, Gαo (GNAO1) with the patient variant p.Thr327Arg (c.980C>G), introduced by site-directed mutagenesis into the non-tagged Gαo plasmid; De novo patient variant reported earlier; also called p.Thr327Arg; source: HEK293T, transfected (in lysate for co-IP; in cells for BRET)) not shown",~50%
